Here are results for 31 molecules from article PMC9911399, “Two distinct binding modes provide the RNA-binding protein RbFox with extraordinary sequence specificity”.

B1: UGCUACC (DNA:RNA)
RNA: GGGAGACCGGAAUUCAGAUUGUCCUGCUACCUUAAAUCCCGUCGUAGCCACCA
DNA 1: CAATCTGAATTCCGGTCTCCC
DNA 2: TGGTGGCTACGACGGGATT
B2: UAUCAGG (DNA:RNA)
RNA: B1 RNA with G26A, C27U, U28C, C30G, C31G
DNA 1: CAATCTGAATTCCGGTCTCCC
DNA 2: TGGTGGCTACGACGGGATT
B3: AUUCCUA (DNA:RNA)
RNA: GGGAGACCGGAAUUCAGAUUGUCCAUUCCUAUUAAAUCCCGUCGUAGCCACCA
DNA 1: CAATCTGAATTCCGGTCTCCC
DNA 2: TGGTGGCTACGACGGGATT
B4: GGUCCGU (DNA:RNA)
RNA: B3 RNA with A25G, U26G, U30G, A31U
DNA 1: CAATCTGAATTCCGGTCTCCC
DNA 2: TGGTGGCTACGACGGGATT
B5: UAAUAGA (DNA:RNA)
RNA: B1 RNA with G26A, C27A, C30G, C31A
DNA 1: CAATCTGAATTCCGGTCTCCC
DNA 2: TGGTGGCTACGACGGGATT
B6: GGCAGUA (DNA:RNA)
RNA: B3 RNA with A25G, U26G, U27C, C28A, C29G
DNA 1: CAATCTGAATTCCGGTCTCCC
DNA 2: TGGTGGCTACGACGGGATT
B7: AGAGCGC (DNA:RNA)
RNA: B3 RNA with U26G, U27A, C28G, U30G, A31C
DNA 1: CAATCTGAATTCCGGTCTCCC
DNA 2: TGGTGGCTACGACGGGATT
B8: UAUUUUG (DNA:RNA)
RNA: B3 RNA with A25U, U26A, C28U, C29U, A31G
DNA 1: CAATCTGAATTCCGGTCTCCC
DNA 2: TGGTGGCTACGACGGGATT
B9: UACAUCA (DNA:RNA)
RNA: B1 RNA with G26A, U28A, A29U, C31A
DNA 1: CAATCTGAATTCCGGTCTCCC
DNA 2: TGGTGGCTACGACGGGATT
B10: CUAAAUA (DNA:RNA)
RNA: B3 RNA with A25C, U27A, C28A, C29A
DNA 1: CAATCTGAATTCCGGTCTCCC
DNA 2: TGGTGGCTACGACGGGATT
B11: AAUUAGC (DNA:RNA)
RNA: B1 RNA with U25A, G26A, C27U, C30G
DNA 1: CAATCTGAATTCCGGTCTCCC
DNA 2: TGGTGGCTACGACGGGATT
B12: CACAAAC (DNA:RNA)
RNA: B1 RNA with U25C, G26A, U28A, C30A
DNA 1: CAATCTGAATTCCGGTCTCCC
DNA 2: TGGTGGCTACGACGGGATT
B13: UUUGAAU (DNA:RNA)
RNA: B3 RNA with A25U, C28G, C29A, U30A, A31U
DNA 1: CAATCTGAATTCCGGTCTCCC
DNA 2: TGGTGGCTACGACGGGATT
B14: CACAGCA (DNA:RNA)
RNA: B1 RNA with U25C, G26A, U28A, A29G, C31A
DNA 1: CAATCTGAATTCCGGTCTCCC
DNA 2: TGGTGGCTACGACGGGATT
B15: UUAAUAU (DNA:RNA)
RNA: B3 RNA with A25U, U27A, C28A, C29U, U30A, A31U
DNA 1: CAATCTGAATTCCGGTCTCCC
DNA 2: TGGTGGCTACGACGGGATT
B16: UCGGGUA (DNA:RNA)
RNA: B3 RNA with A25U, U26C, U27G, C28G, C29G
DNA 1: CAATCTGAATTCCGGTCTCCC
DNA 2: TGGTGGCTACGACGGGATT
B17: UCCGCUA (DNA:RNA)
RNA: B3 RNA with A25U, U26C, U27C, C28G
DNA 1: CAATCTGAATTCCGGTCTCCC
DNA 2: TGGTGGCTACGACGGGATT
B18: CUUGGCU (DNA:RNA)
RNA: B3 RNA with A25C, C28G, C29G, U30C, A31U
DNA 1: CAATCTGAATTCCGGTCTCCC
DNA 2: TGGTGGCTACGACGGGATT
B19: GGGAAGA (DNA:RNA)
RNA: B1 RNA with U25G, C27G, U28A, C30G, C31A
DNA 1: CAATCTGAATTCCGGTCTCCC
DNA 2: TGGTGGCTACGACGGGATT
B20: UUCAUAA (DNA:RNA)
RNA: B3 RNA with A25U, U27C, C28A, C29U, U30A
DNA 1: CAATCTGAATTCCGGTCTCCC
DNA 2: TGGTGGCTACGACGGGATT
B21: AUCGAUU (DNA:RNA)
RNA: B3 RNA with U27C, C28G, C29A, A31U
DNA 1: CAATCTGAATTCCGGTCTCCC
DNA 2: TGGTGGCTACGACGGGATT
B22: CAGGAGA (DNA:RNA)
RNA: B3 RNA with A25C, U26A, U27G, C28G, C29A, U30G
DNA 1: CAATCTGAATTCCGGTCTCCC
DNA 2: TGGTGGCTACGACGGGATT
B23: UUACUUU (DNA:RNA)
RNA: B3 RNA with A25U, U27A, C29U, A31U
DNA 1: CAATCTGAATTCCGGTCTCCC
DNA 2: TGGTGGCTACGACGGGATT
B24: AAUUAUC (DNA:RNA)
RNA: B3 RNA with U26A, C28U, C29A, A31C
DNA 1: CAATCTGAATTCCGGTCTCCC
DNA 2: TGGTGGCTACGACGGGATT
B25: CACCGUA (DNA:RNA)
RNA: B3 RNA with A25C, U26A, U27C, C29G
DNA 1: CAATCTGAATTCCGGTCTCCC
DNA 2: TGGTGGCTACGACGGGATT
B26: CCACGCC (DNA:RNA)
RNA: B1 RNA with U25C, G26C, C27A, U28C, A29G
DNA 1: CAATCTGAATTCCGGTCTCCC
DNA 2: TGGTGGCTACGACGGGATT
B27: GACGAUA (DNA:RNA)
RNA: B3 RNA with A25G, U26A, U27C, C28G, C29A
DNA 1: CAATCTGAATTCCGGTCTCCC
DNA 2: TGGTGGCTACGACGGGATT
B28: AGUGAAG (DNA:RNA)
RNA: B3 RNA with U26G, C28G, C29A, U30A, A31G
DNA 1: CAATCTGAATTCCGGTCTCCC
DNA 2: TGGTGGCTACGACGGGATT
B29: GCCGUCA (DNA:RNA)
RNA: B1 RNA with U25G, G26C, U28G, A29U, C31A
DNA 1: CAATCTGAATTCCGGTCTCCC
DNA 2: TGGTGGCTACGACGGGATT
B30: AAGCAAU (DNA:RNA)
RNA: B3 RNA with U26A, U27G, C29A, U30A, A31U
DNA 1: CAATCTGAATTCCGGTCTCCC
DNA 2: TGGTGGCTACGACGGGATT
B31: GGCAACC (DNA:RNA)
RNA: B1 RNA with U25G, U28A
DNA 1: CAATCTGAATTCCGGTCTCCC
DNA 2: TGGTGGCTACGACGGGATT

Where a chain is given by its changes, count along the chain named. This is one part of the list.

The target in the experiment is T1, RBFOX1 RRM (Homo sapiens, UniProt Q9NWB1 109-208).
T1 sequence: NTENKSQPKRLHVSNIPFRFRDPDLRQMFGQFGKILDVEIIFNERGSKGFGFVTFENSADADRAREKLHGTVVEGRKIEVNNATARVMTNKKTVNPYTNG
In words: EMSA; HiTS-Eq, 1 nM pool, 10 min; buffer printed only for the single-RNA assays: 10 mM Tris pH 7.5, 150 mM NaCl, 3.4 mM EDTA, 0.001% NP-40, 30 C. The conditions noted are these: tags: His6 N-terminal (pET28a); label: 5' 32P. The gist of the method:
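Relative association constants, normalised to the cognate motif, were derived by comparing read counts of each RNA species with those of the control reaction. The RNA sequenced was the free fraction, separated by 8% native PAGE after a 10 min equilibration in 50 µL of 1 nM 5′-radiolabelled RNA (7 randomized nucleotides) with increasing concentrations of purified wild-type or mutant RbFox RRM.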
For orientation: A gel shift assay detects complexes by their altered migration in electrophoresis.
For B1, the binding signal is 0.0147 KA relative to UGCAUGU. For B2 the value was 0.00689 KA relative to UGCAUGU. For B3 the value was 0.000532 KA relative to UGCAUGU; for B4, 0.0125 KA relative to UGCAUGU. B5: the binding signal was 0.0143 KA relative to UGCAUGU. As to B6, the binding signal was 0.01 KA relative to UGCAUGU. In the case of B7, the binding signal is 0.0172 KA relative to UGCAUGU. B8: the binding signal was 0.0201 KA relative to UGCAUGU. B9: the binding signal is 0.00409 KA relative to UGCAUGU. For B10 the value was 0.00354 KA relative to UGCAUGU; for B11, 0.00552 KA relative to UGCAUGU. Take B12: the binding signal was 0.00171 KA relative to UGCAUGU. For the molecule B13, the binding signal is 0.0137 KA relative to UGCAUGU. For the molecule B14, the binding signal was 0.00181 KA relative to UGCAUGU.

Turning to B15, the binding signal is 0.0028 KA relative to UGCAUGU. Regarding B16, the binding signal is 0.0153 KA relative to UGCAUGU. For the molecule B17, the binding signal is 0.00844 KA relative to UGCAUGU. With B18, the binding signal is 0.0214 KA relative to UGCAUGU. Take B19: the binding signal is 0.0349 KA relative to UGCAUGU. Take B20: the binding signal is 0.00178 KA relative to UGCAUGU. As to B21, the binding signal is 0.00466 KA relative to UGCAUGU. With B22, the binding signal was 0.0109 KA relative to UGCAUGU.

In the case of B23, the binding signal is 0.0048 KA relative to UGCAUGU. Under B24 stands 0.00371 KA relative to UGCAUGU. For B25 the value was 0.00128 KA relative to UGCAUGU; for B26, 0.000433 KA relative to UGCAUGU; for B27, 0.0145 KA relative to UGCAUGU. As for B28, the binding signal was 0.0118 KA relative to UGCAUGU. In the case of B29, the binding signal was 0.0103 KA relative to UGCAUGU. As for B30, the binding signal was 0.00394 KA relative to UGCAUGU.

With B31, the binding signal was 0.00716 KA relative to UGCAUGU.
